The campaign covered roughly 150,000 compounds. About 540 (0.36%) showed an effect of 50% or more. The list shows a part of the results.
These compounds were tested on Plasmodium falciparum (assay: Primary screen in NF54 nanoGlo assay, in single point, at 2uM, 72h; a lower Z score goes with more inhibition). Details: timepoint 72 hour.
Type: functional, Erythrocyte

Structure (SMILES)	% Inhibition [%]	Z score
CN(CC(F)(F)F)C(=O)Cn1ccncc1=O	-3	0.45
c1ccc(-c2ncn(CCc3[nH]nc4c3CCCC4)c2-c2cccnc2)cc1	1	-0.11
Cc1cc(C)c(OCCNC(=O)N2CCC3(CC2)CNC(=O)O3)c(C)c1	-2	0.33
CCC(CC)C(=O)Nc1cccc(NC(C)=O)c1	-8	1.47
CCN1CC(C(=O)NC(c2cncc(Br)c2)C2CC2)CC1=O (centres undefined)	-8	0.97
NC(=O)COc1ccc(S(=O)(=O)NCc2nccnc2-c2cccs2)cc1	-11	2.07
OC(CC1CCCN1c1ccnc(C2CC2)n1)c1ccc(F)cc1 (centres undefined)	-1	0.12
Cc1cc(C)cc(OCC(=O)N(Cc2cccs2)c2ccccc2Cl)c1	17	-2
COCCOc1ccc(-c2ncc(F)c(N(C)C)n2)cc1	-3	0.4
COC(=O)C(C)(C)N(C(=O)Cc1csc(C)n1)C(C)C	-11	0.91
CCc1cc(C(=O)NCCOC)sc1C	-7	1.13
CCO[C@H]1COC[C@@H]1Nc1ncnc2[nH]ccc12	0	0.08
COc1ncc(Cl)c(N(C)[C@H](CO)CC(C)C)n1	-17	2.13
CCc1nc(CN(C)Cc2cnc(NS(=O)(=O)c3ccccc3)nc2)no1	1	-0.13
Cc1n[nH]cc1CNCc1ccc(Cn2ccnc2)cc1	-12	1.79
CS(=O)(=O)Cc1ccc(N2CC[C@@]3(CCCNC3=O)C2)nc1	1	-0.08
COc1ccc2cc(C(=O)N3CC[C@H](Oc4cc(C(F)(F)F)ccn4)C3)[nH]c2c1	-8	1.45
Cc1cc(C)c(-c2nc3ccc(-c4ccc5c(c4)OCO5)cc3o2)cc1C	-32	2.8
CC1CN(CC(=O)NC2CCCCNC2=O)C(C)CO1 (centres undefined)	-16	2.08
CC(NC(N)=O)C(=O)N1CCN(c2ccc(F)cc2F)CCC1C (centres undefined)	-5	0.62
O=C1CCCN1[C@H]1CCCN(S(=O)(=O)CC2CCCCC2)CC1	-7	1.12

Structure (SMILES)	% Inhibition [%]	Z score
CC(C)Cn1cc(C(=O)OCC2CCC(C)O2)cn1 (centres undefined)	-11	1.26
c1cc(-c2csc(C3CCOCC3)n2)ccn1	11	-2.02
O=C(O)CC1(NC(=O)[C@H]2CC23CCCC3)CCC1	-9	1.07
CCc1cc2c(N3CC(C)(C)C3(C)C)ncnc2s1	-2	0.21
COC(=O)C1CCC(S(=O)(=O)c2ccccc2)N1C(=O)OC(C)(C)C (centres undefined)	-11	1.58
CC(=O)N1c2ccccc2[C@@H](C)CC12CCCCC2	-7	1.25
COc1ccnc(C(=O)N(Cc2cnn(C)c2)C(C)C)c1	-10	1.37
Cc1ccccc1C(=O)Nc1ccc2c(c1)C(=O)N(C)c1ccccc1O2	-5	0.54
C[C@H]1CN(Cc2ccc(C#N)cc2)CCN1C(=O)c1ccc(S(=O)(=O)NC2CC2)cc1	-6	0.76
CCc1[nH]c2ccc(CNc3nccc(N4CCC[C@H](O)C4)n3)cc2c1C	6	-0.83
COCc1noc(C2CCCCCC2)n1	-16	1.66
COCC1(C(=O)NCC[C@H]2CCOC2)CCC1	-16	2.07
CCOC(=O)c1nn(CCc2ccccc2)c2c1CN(C(=O)c1n[nH]c3ccccc13)CC2	0	-0.05
O=C(Nc1cccc(S(=O)(=O)N2CCOCC2)c1)C1CCN(C(=O)c2ccco2)CC1	13	-1.57
O=C(C[C@@H]1C=CCC1)NCc1cccnc1-n1ccnc1	-9	1.28
Cc1coc(C)c1C(=O)C[C@@]1(O)C(=O)N(Cc2ccccc2Cl)c2ccccc21	32	-3.68
CC(C)(C)OC(=O)NC1CCCC(Nc2cnccn2)C1 (centres undefined)	-2	0.22
N#Cc1ncnnc1-c1ccc(F)cc1	0	0.02
Cn1cc(C2CCCN2CC(O)COCc2cccs2)cn1 (centres undefined)	-9	1.18
CCC(=O)N1CCC[C@H]1C(=O)N1CCc2[nH]c(-c3ccc(OC)nc3)nc2C1	-9	0.86
C[C@@H]1CN(Cc2ccc3c(c2)CN(Cc2ccc(Oc4ncccn4)cc2)CCO3)C[C@H](C)O1	-5	0.91

— ChEMBL document CHEMBL4888484, “Replenishing the malaria drug discovery pipeline: Screening and hit evaluation of the MMV Hit Generation Library 1 (HGL1) against asexual blood stage Plasmodium falciparum ,using a nano luciferase reporter read-out” (2022)
